# Data from the supplement of paper PMC8728848.
# This is one part of the list.
# B1: GS14009A-pdi-495-27-495 (Parabacteroides distasonis) (protein)
# chain: FEEVNTDPDSPTDVPTTNLLAYSLYYTSYRLYDRWFAMDEPMTFCGYASKMTYIDESRYNFRTGVQDTNWEYLYRILNNLKDIEKRATFNETPNMLNVSKVMQVHLMQVATDRWRDVPYTDAAKMTDGILQPKYDKQEDIYPGLLATLKEAADGFADGGSDDLGEGDLLFGGDIEKWQRYCNSMRLRLAMRISEVSPALAKETVEEVMGNPTKYPIMESNDDNAFFWWIGTDPNYYEPMADGYRTRKTEYCAADVIVDHMNTREDPRRSSYFQPTKESVEAGEPKYVGYTIGAKANAVASKYSIWGARFFTDLAGFSPYMRVAEPWFCVAEASMLGWNTGISAEDAYNKAVTYSMEENSVSAEDIADYLANAGKFTNDKKQIYYEEWVAMFKQGMEGWSLYRRTGVPDNLYPAPGRPANYSNHNVPPFRSPYPDKERNLNNANCAPFDAEVVDNLWGKQMWWDTRTGVH
# Key:
# [1] = target: Neu5Gc(a2-8)Neu5Gc(a2-6)Gal(b1-4)GlcNAc; assay: glycan array binding signal (z-score within array); higher = stronger binding; details: glycan notation: IUPAC condensed, linker removed
# Summary of the method: (§1)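 The binding signal is a Z-score computed within each array and averaged over linkers. Arrays of the same protein sequence at different concentrations or buffers were also averaged together. Data originate from 3228 arrays in the Consortium for Functional Glycomics database, kept only where the protein sequence was available.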
# [2] = target: Neu5Gc(b2-6)Gal(b1-4)GlcNAc; assay: as above; details: glycan notation: IUPAC condensed, linker removed
# Summary of the method: as §1
binder,measurement,setting,value
B1,glycan array binding signal (z-score),[1],0.137
same,glycan array binding signal (z-score),[2],0.367
